# Results published in PubChem BioAssay AID686979 (National Center for Advancing Translational Sciences (NCATS), 2013).
# The campaign covered roughly 420,000 compounds. About 50,000 (12%) were called active. This list was built around the results that the source calls inconclusive (neither active nor inactive); the mix of calls is not that of the screen. The call rests on the fitted dose curve; in most records, active means well fitted inhibition curve with a large enough effect; inconclusive means small, poorly fitted or top-dose-only effect; inactive means flat fitted curve, though single readings scatter. No potency is given beside an inconclusive call; the fits are too rough.
# Assay: qHTS for Inhibitors of human tyrosyl-DNA phosphodiesterase 1 (TDP1): qHTS in cells in presence of CPT; further: nearly all actives have a fitted effect of over 55% in size
# Conditions: chicken DT40 Tdp1-/-;hTDP1 cells + 20 nM CPT, ATP luminescence, 48 h; activity change, negative = growth inhibition: at 46.2 µM (top of the series) unless noted
# In short: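 Chicken DT40 Tdp1-/- cells stably complemented with human TDP1 were seeded at 400 cells/well in medium containing 20 nM camptothecin, exposed to pin-transferred compounds, and grown at 37 °C for at least 48 hr. Viability was read as ATP luminescence.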
# On the % scale 0 is the no-effect control and ±100 the full control effect; potency means the concentration at half of the fitted maximal effect; tags describe the fitted curve by direction and shape.
SMILES,"activity change, negative = growth inhibition",Potency
O=C(CSc1nc2ccccc2c(=O)[nH]1)Nc1ccccc1O,inconclusive: -34.5% [inhibitor],
Nc1ncnc2c1ncn2[C@@H]1O[C@H](CO)[C@@H](O)[C@@H]1O,,active: 0.461 µM
COc1ccc(NC(=O)c2sc3nc(N4CCOCC4)c4c(c3c2N)CC(C)(C)OC4)c(OC)c1,,"inconclusive [inhibitor, single point]"
COc1ccc(N2CC(O)=C(c3nc4ccccc4s3)C2=N)cc1,inactive: -27%,
CCOc1ccc(-n2cc(C(=O)Nc3cccc(C)n3)c3cc(OC)c(OC)cc3c2=O)cc1,,"inconclusive [inhibitor, single point]"
Cc1cc(C)n2nc(-c3cccc(Br)c3)cc2n1,,"inconclusive [inhibitor, single point]"
CN1CCN(c2ccc(NC(=O)c3cc(Cl)c4c(c3)OCCO4)cc2)CC1,inactive: -20.6%,
O=C(/C=C/c1ccco1)NCCc1ccccc1,inactive: 5.13%,
CCCc1ccc(-c2c(C)sc(NC(=O)c3ccnn3C)c2C#N)cc1,,active: 23.1 µM
COc1ccc(CCNC(=O)c2cc(CC(C)C)on2)cc1OC,,"inconclusive [inhibitor, single point]"
O=C(c1cc(Cl)nc2ccccc12)N1CCN(S(=O)(=O)c2cccc(C(F)(F)F)c2)CC1,inactive: 8.68%,
Cc1ccc(-n2ccnc(NCc3ccccc3)c2=O)cc1C,,"inconclusive [inhibitor, single point]"
CCOC(=O)c1ccccc1NC(=O)Cn1c(-c2nonc2N)nc2ccccc21,,active: 0.82 µM
CCOc1ccc(C(=O)CC(C(=O)O)N2CCN(Cc3ccccc3)CC2)cc1 (configuration not stated),,active: 20.6 µM
COc1ccccc1N(C(C)=O)C1=C(Cl)C(=O)c2ccccc2C1=O,,active: 0.517 µM
O=C(NCc1cccc(F)c1)C1=Cc2cc(Br)ccc2OC1,,"inconclusive [inhibitor, single point]"
O=[N+]([O-])c1ccc2c(c1)Nc1nc3ccccc3nc1N2,,"inconclusive [inhibitor, partial curve]"
CCn1c(SCC(=O)Nc2ccc(S(N)(=O)=O)cc2)nnc1-c1ccccc1OC,inactive: -6.38%,
CCN1C(=O)c2cccc3c(S(=O)(=O)N(C(=O)c4ccncc4)c4ccc(OC)cc4)ccc1c23,,"inconclusive [inhibitor, single point]"
CC1(C)C2CCC1(C)C(OC(=O)c1ccc(O)cc1)C2 (configuration not stated),,"inconclusive [inhibitor, single point]"
COc1ccc(NC(=O)/C(=C\c2ccco2)NC(=O)c2ccco2)cc1,inactive: 3.25%,
Cc1ccc(-c2nn(-c3ccccc3)cc2/C=N/NC(=O)c2ccc(Br)o2)cc1,,"inconclusive [inhibitor, single point]"
Cc1ccc(S(=O)(=O)N(C)c2ccc(C(=O)NCC(c3ccco3)N3CCCC3)cc2)cc1 (configuration not stated),,"inconclusive [inhibitor, single point]"
O=C(NN=C(Cc1ccccc1)Cc1ccccc1)c1ccccc1O,,"inconclusive [inhibitor, single point]"

SMILES,"activity change, negative = growth inhibition",Potency
Cc1ccc(/C=N/NC(=O)CCCOc2ccc(Cl)cc2Cl)cc1[N+](=O)[O-],inactive: -16.7%,
O=C(C[n+]1ccccc1)N/N=C/c1ccc(O)cc1,,"inconclusive [inhibitor, single point]"
Cc1cnc(CNc2cc(-c3c(C)noc3C)ncn2)cn1,,"inconclusive [inhibitor, single point]"
COc1ccc(-c2nc(Cn3c(SCc4ccc(F)cc4)nc4ccncc43)c(C)o2)cc1OC,,"inconclusive [inhibitor, single point]"
O=C(NCC1CC1)c1csc([C@@H]2O[C@H](CO)[C@H](O)[C@H](O)[C@H]2O)n1,inactive: 9.3%,
O=C(NCCN1CCc2ccccc2C1)Nc1ccc([N+](=O)[O-])cc1,,"inconclusive [inhibitor, single point]"
O=C(N/N=C/C1CC=CCC1)c1ccc(Cl)cc1O (configuration not stated),inactive: -2.07%,
CC(C)NC[C@@H](O)COc1ccccc1-n1cccc1,,"inconclusive [inhibitor, single point]"
Cn1c(CO)cnc1SCc1ccc(F)cc1,inactive: 0.336%,
Cn1c(=O)oc2cc(S(=O)(=O)N3CCCC(C(=O)Nc4ccc(Br)cc4F)C3)ccc21 (configuration not stated),inactive: -19.2%,
Cc1ccc(N/C(N)=N/c2nc(CSc3ccccn3)cc(=O)[nH]2)c(C)c1,,"inconclusive [inhibitor, single point]"
O=C(Nc1cc(C(F)(F)F)ccc1Cl)c1cc2nc(-c3ccc4c(c3)OCO4)cc(C(F)(F)F)n2n1,inactive: 0.0565%,
COc1ccc(OCCCn2c(=O)oc3ccc(C)cc32)cc1,,"inconclusive [inhibitor, single point]"
COc1ccc(S(=O)(=O)N(Cc2ccc(OC)c(OC)c2)Cc2ccco2)cc1,,active: 23.1 µM
Cc1cc(OCC(=O)NCc2ccncc2)ccc1Cl,inactive: 10.5%,
O=C(OCC1OC2OC3(CCCCC3)OC2C2OC3(CCCCC3)OC12)c1ccccc1 (configuration not stated),,"inconclusive [inhibitor, single point]"
CC1(C)NC(=O)N(CC(=O)OCC(=O)Nc2cc(S(=O)(=O)N3CCCCCC3)ccc2Cl)C1=O,inactive: 5.6%,
CN(C)CCCN(C(=O)c1ccc(S(=O)(=O)N2CCc3ccccc3C2)cc1)c1nc2c(F)cc(F)cc2s1,,"inconclusive [inhibitor, single point]"
COc1ccccc1/C=N/NC(=O)CSc1ccc2ccccc2n1,,"inconclusive [inhibitor, single point]"
COc1ccccc1NC(=O)Nc1nnc(Cc2ccccc2F)s1,inactive: -21.8%,
O=C(c1ccc(CS(=O)Cc2ccc(Cl)cc2)o1)N1CCN(c2ccc(F)cc2)CC1 (configuration not stated),,"inconclusive [inhibitor, partial curve, poor fit]"
COC(=O)c1[nH]c2cc(C)ccc2c1NC(=O)CN1CCCc2ccccc21,,"inconclusive [inhibitor, single point]"
O=C(CSc1nc2c(oc3ccccc32)c(=O)n1Cc1ccco1)Nc1cccc(Cl)c1,,"inconclusive [inhibitor, single point]"
COc1ccc(CNC(=O)c2sc(=O)n(Cc3ccccc3C)c2C)cc1,,"inconclusive [inhibitor, single point]"

SMILES,"activity change, negative = growth inhibition",Potency
Cc1ccc(S(=O)(=O)N(C)C)cc1NC(=O)COC(=O)COc1ccc2c(c1)CCC2,inactive: -5.58%,
Cc1cc(NC(=O)CN2C(=O)NC3(CCCCCC3)C2=O)ccc1Br,,"inconclusive [inhibitor, single point]"
Oc1[nH]c(=S)sc1C=C1N=c2ccccc2=N1,inactive: -2.35%,
CN(Cc1ccccc1)C(=O)c1ccc(NC(=O)Cc2cccc(NC(=O)C3CCN(C(=O)C4CCCC4)CC3)c2)cc1,,"inconclusive [inhibitor, single point]"
CC(=O)NCCNc1nc2cc(-c3cc(F)ccc3C)sc2c(=O)n1C,,"inconclusive [inhibitor, single point]"
Cc1cc(NC(=O)Nc2cccs2)no1,,"inconclusive [inhibitor, single point]"
CC1(C)CC(=O)C(C2(O)C(=O)N(Cc3ccccc3)c3ccccc32)CO1 (configuration not stated),,active: 4.61 µM
c1cncc(CNc2ncncc2-c2ccc3c(c2)OCO3)c1,,active: 6.51 µM
O=C(/C=C/C(Cl)(Cl)Cl)Nc1ccc(Cl)cc1,,active: 4.61 µM
O=C(O)C1CCN(S(=O)(=O)c2cccc3nonc23)CC1,inactive: -0.0402%,
C=CCc1ccccc1OCC(O)CN1CCN(c2ccc(C)cc2)CC1 (configuration not stated),,"inconclusive [inhibitor, single point]"
O=C(NNC(=O)c1cccc2ccccc12)c1ccc(F)cc1,inconclusive: 2.63% [inhibitor],
CC(C)c1nc(C(=O)N2CCCC(N3CCN(c4cccc(Cl)c4)CC3)C2)cs1 (configuration not stated),,"inconclusive [inhibitor, single point]"
Cc1ccc2nc(N/N=C/c3ccco3)cc(C)c2c1,,active: 8.2 µM
O=C(CCN=C1NS(=O)(=O)c2ccccc21)Nc1ccc(F)cc1Cl,inactive: -2.43%,
O=C(CCc1nnc2ccc(N3CCC4(CC3)OCCO4)nn12)NCc1ccc(F)cc1,inactive: -3.89%,
CC1(C(=O)NS(=O)(=O)c2cccc(F)c2)CCN1C(=O)Cc1ccc(Cl)cc1Cl (configuration not stated),inactive: -13.7%,
Cc1cc(C)cc(NC(=O)CN2C(=O)c3ccccc3Sc3ccc(C(=O)N4CCOCC4)cc32)c1,,"inconclusive [inhibitor, single point]"
CCc1ccc2nc(N(CCCN(C)C)C(=O)c3ccc(S(=O)(=O)N4CCCC4)cc3)sc2c1,,"inconclusive [inhibitor, single point]"
C[C@@H]1CCCCO[C@H](CN(C)C(=O)Nc2ccc(F)cc2)[C@@H](C)CN([C@H](C)CO)C(=O)c2cc(NC(=O)c3ccccc3)ccc2O1,,"inconclusive [inhibitor, single point]"
OCC1CCCCN1C(=S)Nc1ccc(Cl)cc1Cl (configuration not stated),,"inconclusive [inhibitor, single point]"
Cc1ccc(N2CCN(C(=O)N3CCCC3)CC2)cc1C,,active: 20.6 µM
O=S(=O)(c1ccccc1)n1cc(-c2cccc3nccn23)c2ccccc21,,"inconclusive [inhibitor, single point]"
C/C(N)=C(/C#N)C(=O)COC(=O)c1cc(C)n(-c2ccc(F)cc2)c1C,,"inconclusive [inhibitor, single point]"
